Assay results published in PubChem BioAssay AID1347417 (National Center for Advancing Translational Sciences (NCATS), 2020).
The campaign covered roughly 120,000 compounds. About 5,300 (4.4%) were called active. Inconclusive means that the source gave no clear call. Such entries were picked first, then a sample of the others. Calls come from the whole dose curve; as a rule, active = well fitted inhibition curve with a large enough effect; inconclusive = small, poorly fitted or top-dose-only effect; inactive = no such curve, though single readings can be large or run the other way. Potencies of inconclusive entries are doubtful fits and often do not repeat.
Potency is the fitted concentration of half-maximal effect; tags give direction and shape of the fitted curve.

Assay: qHTS Primary assay for Inhibitors of Plasmodium falciparum Dd2 growth in vitro; note: nearly all actives have a fitted effect of over 65% in size
Settings: P. falciparum Dd2 growth, SYBR Green, 72 h; series mostly up to 28.9 µM
Method in brief: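 Infected erythrocytes (Dd2, 0.3% parasitemia, 2.5% hematocrit final) are added to compound in RPMI-1640/Albumax II medium, grown 72 h at 37C in low oxygen, then lysed with saponin/Triton-X containing SYBR Green and read by fluorescence.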
In the case of `O=C(C[C@@H]1CCNC[C@@H]1Cc1cc(CC2CCCCC2)on1)N1CCC(Cc2ccccc2)CC1`, the Potency is reported as inconclusive: 7.94 µM [inhibitor, partial curve, poor fit]. With `O=C(CCn1ccn2nc3c(c2c1=O)CCCC3)Nc1cccc(C(F)(F)F)c1` the Potency was inconclusive: 17.8 µM [inhibitor, single point]. For `O=C(NC1CCCN(c2cc(-c3ccccc3)[nH]n2)C1)c1ccc2nc[nH]c2c1` (stereo not given), the Potency was inconclusive: 1.58 µM [inhibitor, partial curve, poor fit]. In the case of `Cc1ccccc1CN1C(=O)C2(c3ccccc31)N(c1ccccc1)C(=O)CS2(=O)=O` (stereo not given), the Potency is reported as inconclusive: 2.51 µM [inhibitor, full curve, poor fit]. For `COc1ccc(Cl)cc1NC(=O)Cn1cc(C(=O)c2ccc(C)cc2)c(=O)c2ccc(C)nc21`, the Potency was inconclusive: 8.91 µM [inhibitor, partial curve, poor fit]. For `CCOc1ccc(C(=O)Nc2cccc(C(=O)OCc3cc(=O)n4nc(C5CC5)sc4n3)c2)cc1`, the Potency was inconclusive: 3.16 µM [inhibitor, full curve]. With `COc1ccc(CN2C=C(C(=O)OCc3cc(=O)n4ccccc4n3)C(C)=NS2(=O)=O)cc1` the Potency was “inactive”. With `CC(C)CC(=O)N1CCCC(c2noc(COc3ccccc3)n2)C1` (stereo not given) the Potency was inconclusive: 10 µM [inhibitor, single point]. For `COCc1noc([C@@H]2CC(F)(F)CN2C(=O)Cc2ccccc2F)n1`, the Potency was “inactive”. For `COc1ccc(C(=O)N2CCC3(CC2)CC(OCC2CC2)CCO3)cc1OC` (stereo not given), the Potency was inconclusive: 4.47 µM [inhibitor, full curve, poor fit]. With `Cc1ccc(CN(C(=O)c2ccccc2F)c2ccccn2)o1` the Potency was inconclusive: 17.8 µM [inhibitor, single point]. In the case of `COc1ccc(-c2ccccc2)cc1N1C(=O)[C@@H]2C[C@H]1CN2C(=O)C1(N)CC1`, the Potency is reported as “inactive”. With `O=C1NC2(CCN(Cc3ccc(C(F)(F)F)cc3)CC2)Oc2ccccc21` the Potency was “inactive”. In the case of `O=C(C1CC1)N1CC2(CCCN2CC2CC2)Cc2ccccc21` (stereo not given), the Potency is reported as inconclusive: 10 µM [inhibitor, single point]. For `COCCCNC(=O)CCCN1C(=O)COc2ccc(C(=O)COc3ccc(C)c(C)c3)cc21`, the Potency was “inactive”. With `CC(=O)N1CCN([C@H]2[C@@H]3OC[C@@H](O3)[C@@H](NC(=O)Nc3ccc(F)cc3)[C@@H]2O)CC1` the Potency was inconclusive: 0.282 µM [inhibitor, full curve, poor fit]. With `COC(=O)[C@@H]1Cc2ncn(C)c2CN1C(=O)C(C)(C)C` the Potency was “inactive”. In the case of `Cc1ccc(NC(=O)Cn2c(-c3ccc(Cl)cc3)nc(C)c(CCO)c2=O)cc1`, the Potency is reported as inconclusive: 10 µM [inhibitor, single point]. For `Cc1ccc(NC(=O)CCSc2nc(-c3ccco3)cc(C(F)(F)F)n2)cc1F`, the Potency was active: 0.794 µM. For `O=C(c1ccc(F)cc1)N1CCC2(CC1)CC(N(Cc1ccc(F)cc1)C1CC1)CCO2` (stereo not given), the Potency was inconclusive: 7.94 µM [inhibitor, partial curve, poor fit]. For `COCc1ccc2c(c1)c(OC(C)(C)C(=O)NC1CC1)nn2CCC(C)C`, the Potency was inconclusive: 3.55 µM [inhibitor, partial curve, poor fit]. In the case of `C=Cc1ccc(Cn2c(C)c(CNCCc3ccccc3C)c(C(=O)O)c2C)cc1`, the Potency is reported as inconclusive: 20 µM [inhibitor, partial curve, poor fit]. For `CC1(c2ccccc2)N(Cc2ccccc2C#N)C(=O)OC12CCN(C(=O)Cc1ccc3c(c1)OCO3)CC2` (stereo not given), the Potency was “inactive”. For `c1ccc2c(c1)CC(N1CCC(CN(Cc3ccc4nonc4c3)CC3CCCO3)CC1)C2` (stereo not given), the Potency was inconclusive: 11.2 µM [inhibitor, single point]. For `O=C1CCCCN1Cc1nc(C2CCOC2)no1` (stereo not given), the Potency was inconclusive: 0.0891 µM [inhibitor, full curve, poor fit]. In the case of `COCCOC1CN(C2CCN(Cc3ccccc3)CC2)C12CCCCC2` (stereo not given), the Potency is reported as inconclusive: 1.12 µM [inhibitor, partial curve, poor fit]. In the case of `O=C(Nc1ccc([C@@H](O)[C@H]2COCC(=O)N2Cc2ccccc2F)cc1)c1cccs1`, the Potency is reported as inconclusive: 17.8 µM [inhibitor, single point]. With `COc1ccc(-c2nc(C3CC3)nc3c2CN(C(=O)c2ccc4c(c2)OCO4)CC3)cc1` the Potency was “inactive”. In the case of `CCNC(=O)NC[C@H]1O[C@H](Cc2cc(-c3ccccc3)on2)CC[C@@H]1O`, the Potency is reported as “inactive”. With `COC[C@@H]1CCCN1CCC(=O)Nc1ccc(C(=O)OC)cc1` the Potency was inconclusive: 20 µM [inhibitor, single point]. In the case of `O=C(NCc1cc(F)ccc1F)C1CN(S(=O)(=O)c2cccnc2)CC12CCCCC2` (stereo not given), the Potency is reported as active: 2.82 µM. With `O=C(c1ccc(N2CCC(CO)C2)nc1)N1CCC(N2CCOCC2)CC1` (stereo not given) the Potency was inconclusive: 3.16 µM [inhibitor, single point]. In the case of `CN1C(=O)[C@@H]2C[C@@H](CN2Cc2ccc3ccccc3n2)Oc2ccccc21`, the Potency is reported as “inactive”. With `Cc1ccc(CN2CCCCCCNC(=O)[C@@H]3C[C@@H](C(=O)N4CCN(c5ccccn5)CC4)C[C@@H]32)o1` the Potency was inconclusive: 2.24 µM [inhibitor, single point]. In the case of `O=C(CCc1ccccc1)N1CCCC(CN2CCCC2)CC1` (stereo not given), the Potency is reported as inconclusive: 3.98 µM [inhibitor, partial curve, poor fit]. For `CCn1ccc(C(=O)N2CCC(N3C(=O)C(OC)C34CCOCC4)CC2)n1` (stereo not given), the Potency was “inactive”. For `Cc1ccc(OCC(=O)N2CC(C(=O)NCCc3ccncc3)C3(CCOCC3)C2)cc1` (stereo not given), the Potency was inconclusive: 17.8 µM [inhibitor, partial curve, poor fit]. In the case of `CCOc1ccc(-c2cc(C(=O)Nc3ccc(NC(C)=O)cc3)no2)cc1`, the Potency is reported as inconclusive: 11.2 µM [inhibitor, single point]. In the case of `CCOc1ccc(OCC)c(NC(=O)CC(C)n2nc(C)cc2C)c1` (stereo not given), the Potency is reported as “inactive”. In the case of `O=C(NCc1cnccn1)c1ccc(-c2ncc3cnc(-c4cccc(F)c4)cn23)cc1`, the Potency is reported as inconclusive: 31.6 µM [inhibitor, single point].
